Residue numbers refer to the chain shown, from its start. The list shows a part of the results.
T1: RBFOX1 RRM RbFoxmut (Fox-RRM*) (Homo sapiens, UniProt Q9NWB1 109-208, R118D;E147R;N151S;E152T)
T1 sequence: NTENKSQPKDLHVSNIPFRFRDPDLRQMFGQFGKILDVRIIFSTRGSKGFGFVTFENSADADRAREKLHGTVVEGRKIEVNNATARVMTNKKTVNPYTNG

B1: UCGGGGC (DNA:RNA)
RNA: GGGAGACCGGAAUUCAGAUUGUCCUCGGGGCUUAAAUCCCGUCGUAGCCACCA
DNA 1: CAATCTGAATTCCGGTCTCCC
DNA 2: TGGTGGCTACGACGGGATT
B2: UACGAGC (DNA:RNA)
RNA: B1 RNA with C26A, G27C, G29A
DNA 1: CAATCTGAATTCCGGTCTCCC
DNA 2: TGGTGGCTACGACGGGATT
B3: AGGCGAG (DNA:RNA)
RNA: B1 RNA with U25A, C26G, G28C, G30A, C31G
DNA 1: CAATCTGAATTCCGGTCTCCC
DNA 2: TGGTGGCTACGACGGGATT
B4: GCCUCCA (DNA:RNA)
RNA: B1 RNA with U25G, G27C, G28U, G29C, G30C, C31A
DNA 1: CAATCTGAATTCCGGTCTCCC
DNA 2: TGGTGGCTACGACGGGATT
B5: UGUCGAG (DNA:RNA)
RNA: B1 RNA with C26G, G27U, G28C, G30A, C31G
DNA 1: CAATCTGAATTCCGGTCTCCC
DNA 2: TGGTGGCTACGACGGGATT
B6: ACCACUG (DNA:RNA)
RNA: B1 RNA with U25A, G27C, G28A, G29C, G30U, C31G
DNA 1: CAATCTGAATTCCGGTCTCCC
DNA 2: TGGTGGCTACGACGGGATT
B7: ACGUCGU (DNA:RNA)
RNA: B1 RNA with U25A, G28U, G29C, C31U
DNA 1: CAATCTGAATTCCGGTCTCCC
DNA 2: TGGTGGCTACGACGGGATT
B8: ACGUCAG (DNA:RNA)
RNA: B1 RNA with U25A, G28U, G29C, G30A, C31G
DNA 1: CAATCTGAATTCCGGTCTCCC
DNA 2: TGGTGGCTACGACGGGATT
B9: AGGUGUC (DNA:RNA)
RNA: B1 RNA with U25A, C26G, G28U, G30U
DNA 1: CAATCTGAATTCCGGTCTCCC
DNA 2: TGGTGGCTACGACGGGATT
B10: UUUGUCG (DNA:RNA)
RNA: B1 RNA with C26U, G27U, G29U, G30C, C31G
DNA 1: CAATCTGAATTCCGGTCTCCC
DNA 2: TGGTGGCTACGACGGGATT
B11: AAAGCUG (DNA:RNA)
RNA: B1 RNA with U25A, C26A, G27A, G29C, G30U, C31G
DNA 1: CAATCTGAATTCCGGTCTCCC
DNA 2: TGGTGGCTACGACGGGATT
B12: CCUUCAA (DNA:RNA)
RNA: B1 RNA with U25C, G27U, G28U, G29C, G30A, C31A
DNA 1: CAATCTGAATTCCGGTCTCCC
DNA 2: TGGTGGCTACGACGGGATT
B13: AUGCAGA (DNA:RNA)
RNA: B1 RNA with U25A, C26U, G28C, G29A, C31A
DNA 1: CAATCTGAATTCCGGTCTCCC
DNA 2: TGGTGGCTACGACGGGATT
B14: CUAACUU (DNA:RNA)
RNA: GGGAGACCGGAAUUCAGAUUGUCCCUAACUUUUAAAUCCCGUCGUAGCCACCA
DNA 1: CAATCTGAATTCCGGTCTCCC
DNA 2: TGGTGGCTACGACGGGATT
B15: CGCGAAG (DNA:RNA)
RNA: B14 RNA with U26G, A27C, A28G, C29A, U30A, U31G
DNA 1: CAATCTGAATTCCGGTCTCCC
DNA 2: TGGTGGCTACGACGGGATT
B16: UAUCCCA (DNA:RNA)
RNA: B14 RNA with C25U, U26A, A27U, A28C, U30C, U31A
DNA 1: CAATCTGAATTCCGGTCTCCC
DNA 2: TGGTGGCTACGACGGGATT
B17: GUAGACG (DNA:RNA)
RNA: B14 RNA with C25G, A28G, C29A, U30C, U31G
DNA 1: CAATCTGAATTCCGGTCTCCC
DNA 2: TGGTGGCTACGACGGGATT
B18: UUGUUCA (DNA:RNA)
RNA: B1 RNA with C26U, G28U, G29U, G30C, C31A
DNA 1: CAATCTGAATTCCGGTCTCCC
DNA 2: TGGTGGCTACGACGGGATT
B19: CCCGUCC (DNA:RNA)
RNA: B1 RNA with U25C, G27C, G29U, G30C
DNA 1: CAATCTGAATTCCGGTCTCCC
DNA 2: TGGTGGCTACGACGGGATT
B20: AUCUCUG (DNA:RNA)
RNA: B14 RNA with C25A, A27C, A28U, U31G
DNA 1: CAATCTGAATTCCGGTCTCCC
DNA 2: TGGTGGCTACGACGGGATT
B21: GAAAUUG (DNA:RNA)
RNA: B14 RNA with C25G, U26A, C29U, U31G
DNA 1: CAATCTGAATTCCGGTCTCCC
DNA 2: TGGTGGCTACGACGGGATT
B22: AGUUGUU (DNA:RNA)
RNA: B14 RNA with C25A, U26G, A27U, A28U, C29G
DNA 1: CAATCTGAATTCCGGTCTCCC
DNA 2: TGGTGGCTACGACGGGATT
B23: GAAAUAC (DNA:RNA)
RNA: B14 RNA with C25G, U26A, C29U, U30A, U31C
DNA 1: CAATCTGAATTCCGGTCTCCC
DNA 2: TGGTGGCTACGACGGGATT
B24: CUGCAUC (DNA:RNA)
RNA: B14 RNA with A27G, A28C, C29A, U31C
DNA 1: CAATCTGAATTCCGGTCTCCC
DNA 2: TGGTGGCTACGACGGGATT
B25: CAGAGCU (DNA:RNA)
RNA: B14 RNA with U26A, A27G, C29G, U30C
DNA 1: CAATCTGAATTCCGGTCTCCC
DNA 2: TGGTGGCTACGACGGGATT
B26: CAGUCCA (DNA:RNA)
RNA: B14 RNA with U26A, A27G, A28U, U30C, U31A
DNA 1: CAATCTGAATTCCGGTCTCCC
DNA 2: TGGTGGCTACGACGGGATT
B27: CGUAACU (DNA:RNA)
RNA: B14 RNA with U26G, A27U, C29A, U30C
DNA 1: CAATCTGAATTCCGGTCTCCC
DNA 2: TGGTGGCTACGACGGGATT
B28: UUGAGGC (DNA:RNA)
RNA: B1 RNA with C26U, G28A
DNA 1: CAATCTGAATTCCGGTCTCCC
DNA 2: TGGTGGCTACGACGGGATT
B29: CGGCGGU (DNA:RNA)
RNA: B1 RNA with U25C, C26G, G28C, C31U
DNA 1: CAATCTGAATTCCGGTCTCCC
DNA 2: TGGTGGCTACGACGGGATT
B30: GCUGCUU (DNA:RNA)
RNA: B14 RNA with C25G, U26C, A27U, A28G
DNA 1: CAATCTGAATTCCGGTCTCCC
DNA 2: TGGTGGCTACGACGGGATT
B31: CAACCUG (DNA:RNA)
RNA: B14 RNA with U26A, A28C, U31G
DNA 1: CAATCTGAATTCCGGTCTCCC
DNA 2: TGGTGGCTACGACGGGATT

Biological target: T1, RBFOX1 RRM RbFoxmut (Fox-RRM*)
Assay: EMSA; HiTS-Eq, 1 nM pool, 10 min; buffer printed only for the single-RNA assays: 10 mM Tris pH 7.5, 150 mM NaCl, 3.4 mM EDTA, 0.001% NP-40, 30 C
Details: tags: His6 N-terminal (pET28a); label: 5' 32P
How it was run: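 Purified wild-type or mutant RbFox RRM at increasing concentrations was equilibrated with 1 nM of 5′-radiolabelled RNA carrying 7 randomized nucleotides for 10 min in 50 µL. Unbound RNA was separated by 8% native PAGE and sequenced. Relative association constants came from read-count changes of each RNA species compared with the control reaction, normalised to the cognate motif.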

Question: How did the binding signal turn out when B1 was run?
Answer: 0.0875 KA relative to UGCAUGU

Question: For B2, which binding signal is on record?
Answer: 0.0835 KA relative to UGCAUGU

Question: For B3, which binding signal is on record?
Answer: 0.11 KA relative to UGCAUGU

Question: For B4, which binding signal is on record?
Answer: 0.0729 KA relative to UGCAUGU

Question: For B5, which binding signal is on record?
Answer: 0.116 KA relative to UGCAUGU

Question: Which binding signal does the source give for B6 here?
Answer: 0.082 KA relative to UGCAUGU

Question: Which binding signal does the source give for B7 here?
Answer: 0.121 KA relative to UGCAUGU

Question: How did the binding signal turn out when B8 was run?
Answer: 0.112 KA relative to UGCAUGU

Question: For B9, which binding signal is on record?
Answer: 0.227 KA relative to UGCAUGU

Question: B10 was tested. Which binding signal did it give?
Answer: 0.125 KA relative to UGCAUGU

Question: With B11 as the binder, how does the binding signal read?
Answer: 0.0824 KA relative to UGCAUGU

Question: B12 was tested. Which binding signal did it give?
Answer: 0.0844 KA relative to UGCAUGU

Question: With B13 as the binder, how does the binding signal read?
Answer: 0.125 KA relative to UGCAUGU

Question: Which binding signal does the source give for B14 here?
Answer: 0.0758 KA relative to UGCAUGU

Question: How did the binding signal turn out when B15 was run?
Answer: 0.108 KA relative to UGCAUGU

Question: Which binding signal does the source give for B16 here?
Answer: 0.0578 KA relative to UGCAUGU

Question: With B17 as the binder, how does the binding signal read?
Answer: 0.0848 KA relative to UGCAUGU

Question: Which binding signal does the source give for B18 here?
Answer: 0.173 KA relative to UGCAUGU

Question: How did the binding signal turn out when B19 was run?
Answer: 0.0531 KA relative to UGCAUGU

Question: B20 was tested. Which binding signal did it give?
Answer: 0.101 KA relative to UGCAUGU

Question: B21 was tested. Which binding signal did it give?
Answer: 0.0736 KA relative to UGCAUGU

Question: Which binding signal does the source give for B22 here?
Answer: 0.111 KA relative to UGCAUGU

Question: Which binding signal does the source give for B23 here?
Answer: 0.0758 KA relative to UGCAUGU

Question: For B24, which binding signal is on record?
Answer: 0.457 KA relative to UGCAUGU

Question: Which binding signal does the source give for B25 here?
Answer: 0.101 KA relative to UGCAUGU

Question: For B26, which binding signal is on record?
Answer: 0.0967 KA relative to UGCAUGU

Question: B27 was tested. Which binding signal did it give?
Answer: 0.0972 KA relative to UGCAUGU

Question: Which binding signal does the source give for B28 here?
Answer: 0.08 KA relative to UGCAUGU

Question: How did the binding signal turn out when B29 was run?
Answer: 0.119 KA relative to UGCAUGU

Question: For B30, which binding signal is on record?
Answer: 0.0803 KA relative to UGCAUGU

Question: B31 was tested. Which binding signal did it give?
Answer: 0.057 KA relative to UGCAUGU
